# From the supplement of paper PMC3334620
# Over roughly 33,000 sequences, “E-score (-0.5 to 0.5)” has its median near -0.053; the highest 2% begin near 0.37. This is one part of the list.
# Biological target: Hap1 (UniProt P0CE41)
# Test: PBM E-score (8-mer binding enrichment) (E-score (-0.5 to 0.5)); higher = stronger / more preferred TF binding; most listed sequences are background and not binding sites
# Details: protein concentration: 200 nM; construct: GST-DNA-binding domain
# Method in brief: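 Masliner-normalised scans of fluorescent anti-GST signal were the basis for scoring. That signal came from GST-tagged yeast transcription factors applied at about 100-200 nM to double-stranded universal all-10-mer Agilent arrays on fresh or once-stripped slides. Each ungapped eight-base word, pooled with its reverse complement, received an E-score from the Universal PBM Analysis Suite.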
# Chain of UniProt P0CE41 (P0CE41 whole entry): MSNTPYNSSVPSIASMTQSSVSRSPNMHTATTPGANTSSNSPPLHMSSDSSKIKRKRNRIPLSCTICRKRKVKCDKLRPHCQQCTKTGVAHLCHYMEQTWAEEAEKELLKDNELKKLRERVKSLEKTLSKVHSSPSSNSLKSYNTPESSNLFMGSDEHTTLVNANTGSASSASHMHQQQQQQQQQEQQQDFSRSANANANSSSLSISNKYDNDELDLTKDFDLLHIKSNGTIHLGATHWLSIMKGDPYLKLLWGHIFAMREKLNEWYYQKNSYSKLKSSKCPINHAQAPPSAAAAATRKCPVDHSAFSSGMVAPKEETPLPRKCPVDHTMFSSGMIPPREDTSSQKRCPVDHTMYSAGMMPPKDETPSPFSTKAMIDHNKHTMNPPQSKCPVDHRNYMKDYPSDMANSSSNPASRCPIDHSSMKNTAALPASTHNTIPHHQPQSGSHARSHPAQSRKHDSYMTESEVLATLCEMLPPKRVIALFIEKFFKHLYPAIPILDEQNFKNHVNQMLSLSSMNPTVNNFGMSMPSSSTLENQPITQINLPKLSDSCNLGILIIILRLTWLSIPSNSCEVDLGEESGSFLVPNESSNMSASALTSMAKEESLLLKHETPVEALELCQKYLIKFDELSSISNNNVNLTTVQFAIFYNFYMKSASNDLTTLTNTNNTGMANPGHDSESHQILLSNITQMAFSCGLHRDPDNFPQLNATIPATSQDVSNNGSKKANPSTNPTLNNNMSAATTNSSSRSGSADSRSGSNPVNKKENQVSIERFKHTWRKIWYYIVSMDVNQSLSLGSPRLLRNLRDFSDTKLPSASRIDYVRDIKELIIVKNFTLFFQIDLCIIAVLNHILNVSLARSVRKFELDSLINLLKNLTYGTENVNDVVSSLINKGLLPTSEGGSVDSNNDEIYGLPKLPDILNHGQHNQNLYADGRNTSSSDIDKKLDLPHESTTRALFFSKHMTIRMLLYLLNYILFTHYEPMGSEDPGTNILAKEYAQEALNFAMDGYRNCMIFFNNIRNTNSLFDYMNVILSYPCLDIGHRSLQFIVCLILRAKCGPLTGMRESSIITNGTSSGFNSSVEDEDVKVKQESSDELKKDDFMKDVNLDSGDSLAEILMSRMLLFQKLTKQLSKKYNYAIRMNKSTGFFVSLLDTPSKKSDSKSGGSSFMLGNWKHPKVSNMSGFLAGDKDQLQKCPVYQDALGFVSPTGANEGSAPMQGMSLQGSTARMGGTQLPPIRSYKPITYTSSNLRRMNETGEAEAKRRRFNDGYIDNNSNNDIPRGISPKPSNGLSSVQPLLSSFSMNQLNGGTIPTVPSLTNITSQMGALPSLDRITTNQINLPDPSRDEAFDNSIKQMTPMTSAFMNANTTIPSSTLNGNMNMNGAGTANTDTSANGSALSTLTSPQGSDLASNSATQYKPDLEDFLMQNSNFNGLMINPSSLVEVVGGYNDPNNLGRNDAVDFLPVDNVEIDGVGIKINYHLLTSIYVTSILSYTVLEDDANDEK
row,Sequence,PBM E-score
1,GAGTTGCC,0.0867
2,ACCCTTGA,-0.0126
3,ACAATGCG,-0.00454
4,ACAGTGTA,-0.209
5,TAAAGTGA,-0.11
6,ACGGTAAA,0.0275
7,ACTCCAAG,-0.152
8,AAGATAAT,-0.0331
9,CCGCGGTC,0.276
10,GCGGTCAA,0.138
11,GCCCTAGC,-0.178
12,CATATTTA,-0.0868
13,TCACGTCA,-0.186
14,TTTGCAAA,-0.283
15,GTCTAGCA,-0.0959
16,AGTGGGGC,-0.178
17,GAAGTGCA,-0.208
18,ATCAACCA,-0.171
19,CCGAGCCG,0.397
20,CCGGTTAC,0.279
21,ATGATCAA,-0.25
22,GGTCCTAC,-0.0458
23,GCTGATCA,-0.0634
24,TATTGAAA,-0.0987
25,ATTCTTGA,-0.0148

row,Sequence,PBM E-score
1,ATTGCCCG,0.223
2,AGCGCTGA,0.072
3,CATGGCAG,-0.0806
4,CGCATCAG,0.166
5,CCGCAACA,0.252
6,CCGTTCTA,0.0806
7,CGCGCCAA,0.152
8,TGAAGGAA,-0.247
9,ACGGGTCG,0.145
10,ATATCACC,0.186
11,ATTTAATG,0.112
12,ACATTGGA,-0.0771
13,ATGTAGCC,0.00959
14,ACGAAGCT,-0.198
15,AGAGCCGC,0.161
16,AAGCAACG,0.0189
17,GAACCGCA,0.124
18,AACCTAGA,-0.0855
19,ATGACTGA,-0.207
20,CTAGTGGA,-0.196
21,AATGCTAC,0.126
22,CGCATTCA,-0.0417
23,GTCTCTTA,-0.0167
24,AGAGGGCA,-0.162
25,GCGCCCAC,-0.0322

row,Sequence,PBM E-score
1,ACGAAACT,-0.11
2,ATTCGTCC,0.317
3,ATATACGA,-0.196
4,CGCAGCGC,0.00748
5,ATAGCGAC,-0.132
6,ACATGTCT,0.0344
7,AAAGTGAG,-0.231
8,ATCAGGGA,-0.0649
9,AAGTTGGC,-0.115
10,ATGCTATG,-0.186
11,GCTGTTCC,0.0138
12,ATCTAGTA,-0.221
13,GTCCGTAA,0.323
14,CCGGAGAA,0.428
15,CGTGTGAC,-0.0698
16,GCCATCCA,-0.133
17,GCACTCGA,0.0397
18,CCTTGGCG,0.0195
19,CGAATAGA,-0.149
20,ACTTATTA,-0.215
21,ACCAGTTC,0.0418
22,CATAAGCG,0.0361
23,GAGCTTAA,0.0224
24,CTTCCACC,-0.00109
25,CCGGTACG,0.342

row,Sequence,PBM E-score
1,AGGAGTAA,0.0122
2,AAAGGCTT,-0.073
3,TGATAGAA,-0.207
4,AATGTTGA,-0.0613
5,GATTCTTA,-0.0045
6,AAGTGCTG,-0.129
7,ACTCATTC,0.14
8,GTATATTA,-0.287
9,CGCTATCC,0.099
10,AGGTCTAC,-0.18
11,TCTCCAAA,-0.138
12,AACAACCC,0.103
13,CTGTCCTA,-0.201
14,GATTCGTA,0.00463
15,AATTCTGG,-0.289
16,CATCGAAG,-0.0438
17,ATTCGTGC,0.0213
18,ACTCTAAG,-0.113
19,CGATTGCA,0.0711
20,ACTAGTCG,-0.0155
21,CCCCTTAG,-0.0343
22,AAGGGATC,0.00434
23,CGGAGATA,0.495
24,AGTCCAGA,-0.122
25,AGGAGCTA,-0.192

row,Sequence,PBM E-score
1,ATCCCGTA,0.0391
2,CAGCACCG,0.253
3,ACAAATAC,-0.0498
4,ATCGGGAC,0.181
5,CGTCTCCA,-0.014
6,CCAGACAA,-0.05
7,TACTACGA,-0.16
8,TAACCCGA,0.355
9,TCCTCTAA,-0.26
10,TAGGGTGA,-0.116
11,CTACCCTA,-0.194
12,CTGAAGAC,-0.0917
13,CCGAGTAA,0.245
14,GGTCACAC,-0.179
15,ACGACTTA,-0.283
16,GACTGCAC,-0.225
17,GTTTACAA,-0.057
18,TCCGCCAA,0.25
19,CTCATTAC,-0.0367
20,GGCATGCA,-0.229
21,ACGGCCTC,-0.00159
22,ACTTGCTG,-0.256
23,AACCCTAC,-0.308
24,ATGGACCC,0.074
25,ATTATACG,0.108

row,Sequence,PBM E-score
1,GGCTCGTA,-0.0705
2,CAGAGTGC,-0.22
3,AGCCTCTA,-0.234
4,CCCACCCC,0.183
5,ACATCTTG,-0.206
6,AATAAACG,-4e-05
7,AGATATTC,-0.207
8,CATGTGTA,-0.0897
9,AGGCCAAG,-0.214
10,AGGAGCAC,-0.163
11,AACAGGGA,-0.203
12,CGAATGCA,-0.0874
13,AAGAGGGG,-0.0367
14,CCGCGTCG,0.211
15,GCTTTAAA,0.0762
16,GATAATAC,0.0612
17,ATACATAT,0.00563
18,AATGTAAG,-0.192
19,ACGCAGGA,-0.16
20,ACCCAATA,-0.0996
21,AGCGCTGC,-0.164
22,CAACACAA,-0.161
23,ATAACATG,-0.0555
24,GCGCGGCC,0.155
25,CATGCGCA,-0.0725

row,Sequence,PBM E-score
1,ACGCCCTG,-0.0395
2,TGGGGTAA,0.148
3,AATGGGCT,-0.236
4,CCGACGCA,0.122
5,AACCGGAA,0.337
6,ACGAAATC,0.0404
7,GAACATGC,-0.18
8,AGCGATCG,0.0297
9,CAATCGCC,0.0682
10,ATCAGCAC,-0.213
11,AATTCAAT,0.0811
12,AGTCGAAC,-0.052
13,CGCAAATA,0.23
14,CCCTCACC,-0.0645
15,GCCGCCAA,-0.0304
16,GGGCGTCA,-0.0113
17,GATTTCAC,0.0494
18,CGACTACC,-0.0518
19,ATGCGACC,0.207
20,GCATCCAA,-0.115
21,CTTGTTAC,-0.0448
22,ATGGTTAA,-0.0945
23,AAGGCCTT,-0.332
24,CCGTCGCA,0.179
25,CAATACGG,0.0664

row,Sequence,PBM E-score
1,CATTCGGG,0.3
2,AGCAAGTG,-0.295
3,ACTAGCTC,-0.0932
4,GCGCGTCA,-0.0915
5,CCGTCTCA,-0.0767
6,AATTTATA,-0.0721
7,CATGAAGG,-0.234
8,ATTGGAGG,-0.084
9,GTAGGGGA,-0.143
10,ATCACCTC,-0.129
11,AGCGTCCC,0.0151
12,ATGCCAAT,-0.257
13,GAATAAAC,-0.001
14,ACGCGACT,-0.0752
15,GCGTGGTA,0.109
16,ACGAGGAA,-0.0333
17,ACTCCTGC,0.113
18,AAGCAGAG,-0.354
19,ATCTCGGG,0.356
20,GCAGACCA,0.0072
21,ACGCGACA,-0.0338
22,GCACTTTA,-0.0226
23,CATCTTAG,-0.059
24,ATCGATAG,-0.0823
25,GTTTACCA,-0.0225

row,Sequence,PBM E-score
1,CGGCTCAC,0.0997
2,CCGGGGAA,0.372
3,CGCGAGCC,0.214
4,AATGGAAA,0.00111
5,GCAGAGAA,-0.135
6,GCCGGTCC,0.323
7,ACTGGTCA,-0.106
8,GATTATAA,0.173
9,AAAGGATA,-0.0168
10,AGCGGTAC,0.0325
11,ATTGAGAG,-0.0536
12,AAGGGCAT,-0.353
13,AGTCCGAT,0.432
14,AATCACAA,-0.0867
15,GTCTCAAC,-0.178
16,CCGAAGCC,0.264
17,CAGTGCGA,-0.227
18,CCGGACTC,0.361
19,AGCTGATG,-0.0646
20,CAGTACAG,-0.116
21,AATCCCCT,-0.138
22,AATTAGTC,0.0725
23,GCCCAACA,-0.211
24,CAGGCTTC,0.0635
25,ATCCTAGA,0.0243

row,Sequence,PBM E-score
1,AGGGTACG,-0.0528
2,ACAGTAGA,-0.213
3,CAGTAGGG,-0.206
4,GGCGCGGA,0.328
5,ATAGTCGG,0.214
6,ACGTCCCC,0.00169
7,AGTGTGAC,-0.373
8,TTCTCCAA,-0.245
9,GCAAGGCC,0.117
10,CGCTAACG,0.171
11,ATATCCAA,-0.0161
12,CCTAAACA,-0.158
13,CCGAGCGC,0.384
14,AATTGTTC,-0.0306
15,TAGTCTAA,-0.0657
16,CTTGTCAC,-0.123
17,CGTGGGTA,0.00442
18,CTGAGTCC,-0.0126
19,AGATGTGG,-0.238
20,AGCATGAC,-0.213
21,AATCGATC,-0.0397
22,GCAAGTAC,-0.195
23,GAAAGGGC,-0.0881
24,AAGACAAG,-0.108
25,GGGAGACC,0.0532

row,Sequence,PBM E-score
1,GTGATGTA,-0.043
2,AACCCGCC,0.212
3,CTCACGCC,-0.0132
4,GTACAGAA,-0.0691
5,CACACTGA,-0.299
6,ATATAGGG,-0.104
7,GTCGCCCA,-0.211
8,CTACTACC,0.068
9,TGCCTTAA,-0.15
10,ACACGTAA,-0.198
11,GGTTAAAA,0.109
12,TACCCCCA,-0.0886
13,CGTGCTGA,-0.256
14,AGCCTTAC,-0.142
15,AACCTAGG,-0.0459
16,GCCGGGAA,0.326
17,AAACGACG,-0.136
18,CAGCATCC,0.0424
19,CCGAGGGC,0.333
20,GATCCTGA,0.0787
21,CCGACGAG,0.259
22,CGGGGCAG,0.257
23,CTGGAGGA,-0.25
24,CTTGAATC,-0.128
25,CAAGATCC,0.059

row,Sequence,PBM E-score
1,TCATAGCA,-0.268
2,CACCCAAG,-0.111
3,GAGAACTA,-0.0962
4,GCCAACAA,-0.197
5,GGAGGGGA,0.0268
6,CCAGCAAG,-0.153
7,CCTATGCC,-0.186
8,CACGGCCA,0.0826
9,TGCGGTAA,0.042
10,GAGGTAGC,-0.0529
11,AATAGTGT,0.201
12,ACAAAACG,0.0381
13,CGGTCACA,0.161
14,ACCGGTCC,0.329
15,AGCAGACC,0.0307
16,AAGTCGTG,-0.209
17,GACTAACA,0.0163
18,CCTCTGTA,-0.255
19,GGATCTCA,-0.055
20,CGTGATAC,-0.0629
21,AATGCGGC,0.218
22,GTATGGGA,-0.187
23,ATTTGACG,-0.00555
24,GCAACTCC,0.113
25,CCTCCCTC,0.0165

row,Sequence,PBM E-score
1,ATCAGATG,-0.243
2,GAACCCAA,-0.257
3,ACCTGCAC,-0.0824
4,CATATCGC,0.179
5,GGGGGAAC,0.0171
6,GAAATTGC,-0.0453
7,GGTTACAC,-0.0561
8,AAACCACG,-0.0117
9,CCCGAGAC,0.32
10,CGCTAAGC,0.00998
11,AGTCATTA,-0.422
12,AGGACTGA,-0.193
13,ACAGAGAC,-0.0779
14,ACACTCGC,0.116
15,CGGTGGTA,0.24
16,GTAGGTCA,-0.0302
17,GAGTTGGA,-0.00873
18,GACATCCA,-0.175
19,GCCAATCA,-0.232
20,GAGGCAGC,-0.0968
21,CAATGTAG,-0.0808
22,GACGTAGA,-0.165
23,AGGTCACC,-0.122
24,AGCCAGAG,-0.199
25,AGATCATG,-0.226

row,Sequence,PBM E-score
1,ACGCCGGG,0.306
2,ACCCAGCT,-0.113
3,CCTGTCTC,-0.112
4,AAGTGCAC,-0.0983
5,AATAATAC,-0.0134
6,ACACGCTA,0.0221
7,GCGACTTA,-0.0228
8,AGTCATGA,-0.165
9,CTCCGTAC,0.196
10,CGATAAAG,0.339
11,GTGAGTAA,-0.188
12,ATTAAATC,0.21
13,GTATAATA,0.0596
14,ATTGATTA,0.0695
15,ACGTCGCC,-0.0473
16,ACCGGGGG,0.379
17,GTCCTAAA,0.0632
18,TACAGGCA,-0.0782
19,GTGTACAC,-0.215
